About 14,000 (4.5%) of roughly 310,000 compounds showed an effect of 50% or more. The effect is printed as a negative number. The list shows a part of the results.
These molecules were tested against human ether-à-go-go-related gene (hERG) potassium channel (human, UniProt Q12809) (assay: primary screen, population patch clamp on CHO cells stably expressing hERG).
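Note: peak tail current of the secondary pulse compared with the same well before compound.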

Sequence of human ether-à-go-go-related gene (hERG) potassium channel (Q12809 whole entry, looked up): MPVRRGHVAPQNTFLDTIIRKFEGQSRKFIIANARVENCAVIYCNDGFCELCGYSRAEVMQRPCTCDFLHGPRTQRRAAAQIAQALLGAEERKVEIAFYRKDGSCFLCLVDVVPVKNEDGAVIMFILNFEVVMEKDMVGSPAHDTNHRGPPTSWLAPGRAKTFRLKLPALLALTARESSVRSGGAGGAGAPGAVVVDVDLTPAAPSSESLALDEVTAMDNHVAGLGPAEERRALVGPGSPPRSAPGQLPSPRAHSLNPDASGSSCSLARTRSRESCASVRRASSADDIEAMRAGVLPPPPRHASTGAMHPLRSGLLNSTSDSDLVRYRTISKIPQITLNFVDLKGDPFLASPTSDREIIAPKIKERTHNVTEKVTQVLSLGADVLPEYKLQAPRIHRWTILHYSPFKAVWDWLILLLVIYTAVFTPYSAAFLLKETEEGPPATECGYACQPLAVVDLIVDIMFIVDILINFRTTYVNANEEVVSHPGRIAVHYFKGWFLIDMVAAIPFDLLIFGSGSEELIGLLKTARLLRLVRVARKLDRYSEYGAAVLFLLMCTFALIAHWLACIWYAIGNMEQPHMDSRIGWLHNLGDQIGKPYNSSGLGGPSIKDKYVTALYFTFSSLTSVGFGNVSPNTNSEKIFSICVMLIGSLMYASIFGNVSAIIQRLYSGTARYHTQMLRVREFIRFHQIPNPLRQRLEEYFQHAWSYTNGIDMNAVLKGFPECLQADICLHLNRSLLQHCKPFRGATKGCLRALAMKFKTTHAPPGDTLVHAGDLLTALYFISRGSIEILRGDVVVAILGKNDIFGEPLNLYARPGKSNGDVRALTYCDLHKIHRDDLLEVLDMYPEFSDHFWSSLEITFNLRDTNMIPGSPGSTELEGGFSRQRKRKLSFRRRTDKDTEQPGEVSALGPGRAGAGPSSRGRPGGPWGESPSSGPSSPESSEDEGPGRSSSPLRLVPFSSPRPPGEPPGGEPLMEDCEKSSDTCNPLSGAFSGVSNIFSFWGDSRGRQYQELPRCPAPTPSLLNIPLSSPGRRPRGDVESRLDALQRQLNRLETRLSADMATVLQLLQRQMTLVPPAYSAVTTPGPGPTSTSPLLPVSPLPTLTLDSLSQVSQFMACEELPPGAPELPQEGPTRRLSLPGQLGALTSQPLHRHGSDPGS

Row | Compound | hERG current change (%, negative = inhibition) at 10uM [%]
1 | O=C(Nc1ccc(F)cc1F)c1cc2ncc(CCCl)cn2n1 | -12.3
2 | CN(C)CCNC(=O)c1ccc2c(c1)N(Cc1ccc(F)cc1)CCS2 | -32.8
3 | O=C(Nc1ncc(S(=O)(=O)c2ccc([N+](=O)[O-])cc2)s1)c1ccc2ccccc2c1 | 19
4 | Clc1cccc(C2=NOC(c3nnc(-c4ccccc4)o3)C2)c1 (centres unmarked) | 4.19
5 | O=C(COc1ccc([N+](=O)[O-])cc1)NCC(c1cccs1)N1CCOCC1 (centres unmarked) | -48.2
6 | Cc1cc(/C=C(\C#N)C(=O)NCc2cccs2)c(C)n1-c1ccc([N+](=O)[O-])cc1 | 2.97
7 | CCCc1nc(SCc2ccc(OCC)cc2)n[nH]1 | 14.5
8 | CCN1C(=O)c2cccc3c(N)ccc(c23)C1=O | 18.7
9 | Cl.Nc1ccccc1Sc1nc2ccccc2[nH]1 | -16.3
10 | CCc1ccc(OCC(=O)Nc2ncc3c(n2)CC(C)(C)CC3=O)cc1 | -13.8
11 | Cc1nc(CS(=O)(=O)c2ccccn2)sc1C(=O)NNC(=O)c1c(F)cccc1Cl | 8.05
12 | COC(c1ccccc1)c1nnc(CCC(=O)NC2CCCCC2)o1 (centres unmarked) | 16.6
13 | Cc1nn(C)c(C)c1NC(=O)CN1CCC(O)(c2ccc3c(c2)OCO3)CC1 | -8.66
14 | O=C(c1ccc(Cn2c(=O)[nH]c3ccccc3c2=O)cc1)N1CCN(c2ccc(F)cc2)CC1 | -15.5
15 | CCCOC(=O)C1=C(C)NC2=C(C(=O)CC(C)(C)C2)C1c1cccnc1 (centres unmarked) | 3.35
16 | Br.CN(/N=C/c1ccncc1)C1=NCCN1 | 5.06
17 | COc1ccc(CCNC(=O)[C@H](C)N2C(=O)N3CCc4c([nH]c5ccccc45)[C@@]3(C)C2=O)cc1 | -19
18 | CCOc1ccc(NS(=O)(=O)c2cc(Cl)ccc2OC)cc1 | -10.3
19 | CC1(C)NC(=O)N(CC(=O)N2CCN(c3ccc([N+](=O)[O-])cc3)CC2)C1=O | -66.1
20 | Cc1cccc(C)c1OCCCCN1CCNCC1.O=C(O)C(=O)O | 12.6
21 | C[C@H](NC(=O)NC1CCCc2ccccc21)C(=O)O (some centres unmarked) | 17
22 | O/N=C/c1cn(-c2ccccc2)nc1-c1ccc2c(c1)OCCO2 | -0.701

Row | Compound | hERG current change (%, negative = inhibition) at 10uM [%]
23 | Cc1cc(C)n(-c2nc3ccccc3c(=O)n2OCCOc2ccccc2)n1 | -1.88
24 | CC1CCCC(NS(=O)(=O)c2cc(Br)cnc2N)C1C (centres unmarked) | -8.36
25 | NC1=NC(c2cn(-c3ccccc3)nc2-c2cccs2)n2c(nc3ccccc32)N1 (centres unmarked) | -1.46
26 | COc1ccc(CCN(Cc2ccccn2)C(=S)Nc2ccccc2C)cc1OC | -11.3
27 | CC/C(=N\NC(=O)Nc1ccccc1)c1c(O)n(Cc2ccccc2)c(=O)[nH]c1=O | 3.1
28 | O=C(CSc1nnc(-c2ccccn2)n1Cc1ccco1)c1ccccc1 | -42.5
29 | CS(=O)(=O)c1nsc2nc(=O)c(/C=C3\C=Nc4ccccc43)c(N)n12 | 12.4
30 | CCn1c(CNC(=O)c2ccccc2F)cc2cc(C)ccc21 | 22.2
31 | N/C(=N\NC(=O)c1ccc(F)cc1)c1cc2ccccc2oc1=O | -6.66
32 | O=[N+]([O-])c1ccc(N(CCO)Cc2ccccc2)c([N+](=O)[O-])c1 | -11.9
33 | C=CCn1c(Cc2ccc(OC)cc2)nnc1SCC(=O)NCCc1ccccc1 | -39.2
34 | C=CCOc1ccc(/C(O)=C2\C(=O)C(=O)N(CCCOC)C2c2ccc(O)c(OC)c2)cc1 (centres unmarked) | 21.1
35 | CN(C)C(=O)c1ccc2c(c1)n(C)c(=O)n2C | 4.88
36 | Cc1onc(-c2ccccc2Cl)c1C(=O)NCc1cccs1 | -4.95
37 | O=[N+]([O-])c1ccccc1OCC(O)CN1CCN(CC(O)COc2ccccc2[N+](=O)[O-])CC1 (centres unmarked) | -60.2
38 | O=S(=O)(NCc1cccnc1)c1cc(Cl)ccc1Cl | 16.6
39 | N#Cc1ccc(S(=O)(=O)N2CCC(C(=O)Nc3cccc(C(=O)NC4CC4)c3)CC2)cc1 | 0.719
40 | CCOC(=O)C1C2C=CC3(CN(Cc4ccco4)C(=O)C13)O2 (centres unmarked) | 16.2
41 | Cc1nnc(C)n1/N=C/c1c(O)ccc2ccccc12 | 4.67
42 | Cc1c(NC(=O)c2c(NC(=O)CNC3CC3)sc3c2CCCC3)c(=O)n(-c2ccccc2)n1C.O=C(O)C(=O)O | -35.4
43 | COC(=O)c1ccsc1NC(=O)CS(=O)(=O)c1ccccc1 | -10.1
44 | CN(Cc1cccs1)CC(O)COCc1ccco1 (centres unmarked) | -16.3

Row | Compound | hERG current change (%, negative = inhibition) at 10uM [%]
45 | Cc1cccc([C@@H]2[C@@H]3C(=O)N(C)C(=O)[C@@H]3[C@@H]3C(=O)Nc4ccccc4C(=O)N23)c1 | -5.35
46 | COc1cccc(CNC(=O)CCC2CCCN(C(=O)c3cc(C)[nH]n3)C2)c1 (centres unmarked) | 31.9
47 | COc1ccc(CCC(=O)N2c3ccccc3CC2C)cc1 (centres unmarked) | 1.56
48 | Cc1ccc(NS(=O)(=O)c2ccc(NC(=O)c3cccs3)cc2)cc1 | 13
49 | O=C(NCCN1CCCCC1)c1ccco1 | 7.02
50 | COC(=O)c1[nH]c2cccc(OC)c2c1NC(=O)CN1CCN(c2cccc(OC)c2)C(C)C1 (centres unmarked) | 10.7
51 | CCN(CC)CCN(C(=O)CN1C(=O)CCC1=O)c1nc2cc3c(cc2s1)OCO3.Cl | -20.9
52 | O=C(NCCCN1CCOCC1)C1CC(=O)N(c2ccccc2)C1 (centres unmarked) | 12.1
53 | Cc1ccccc1S(=O)(=O)Cc1ccc(C(=O)NCCN(C)Cc2ccccc2)o1 | -48.5
54 | CCOC(=O)CCc1c(C)c2c(C)nn(-c3ccccc3)c2[nH]c1=O | -15.9
55 | CN1CCN(C(=O)c2cc(COc3ccc(F)cc3Cl)on2)CC1c1ccccc1 (centres unmarked) | -5.66
56 | CCOCc1nnc(NC(=O)CS(=O)(=O)c2ccc(C)cc2)s1 | 6.62
57 | CC(=O)N(C)CC#CCN1CCC(O)CC1 | 6.31
58 | N#CC1=C(N)Oc2n[nH]c(-c3ccccc3)c2C1c1cccc(OC(=O)N2CCOCC2)c1 (centres unmarked) | -5.44
59 | Cn1c(=O)n(C)c2cc(/C=N/NC(=O)c3ccncc3)ccc21 | 5.41
60 | O=c1c2cc3c(=O)n(-c4ccccc4O)c(=O)c3cc2c(=O)n1-c1ccccc1O | 16.9
61 | Cc1c(C)c2c(OCC(=O)N[C@@H](Cc3ccccc3)C(=O)O)cc3c(c2oc1=O)CCC(C)(C)O3 | -0.584
62 | CCOc1ccc(C(=O)NCC2OCCc3ccccc32)cc1 (centres unmarked) | -8.57
63 | O=C(Nc1ccccc1)c1cnc2ccccc2n1 | -8.27
64 | COc1ccc(C(C(=O)NCC2CCCO2)N(C(=O)Cn2nnc3ccccc32)c2ccc(NC(C)=O)cc2)cc1 (centres unmarked) | 14.6
65 | O=C(CSC1=NCCS1)N1CCN(c2ccccc2)CC1 | -8.5
66 | N#CCSc1ncnc2sc3c(c12)CCC3 | 9.43

Row | Compound | hERG current change (%, negative = inhibition) at 10uM [%]
67 | C=CCNC(=O)NC(=O)c1csc([N+](=O)[O-])c1 | 5.83
68 | O=C(NCCc1nc2ccccc2[nH]1)c1cc([N+](=O)[O-])cc([N+](=O)[O-])c1 | -8.57
69 | CCOCCCNC(=O)c1cc2c(=O)n3cccc(C)c3nc2n1C | 12.4
70 | COc1ccccc1NC(=O)CCSc1ccc(C)cc1 | -13.8
71 | CCCOc1cccc(-c2nn(-c3ccccc3)cc2/C=C(\C#N)C(=O)NCCCn2ccnc2)c1 | -13.7
72 | C=CCn1c(CSCc2ccccc2)nnc1SCC(=O)NCc1ccccc1 | -18
73 | CC(=O)c1cccc(NC(=O)c2cc(C)no2)c1 | -1.59
74 | O=C(Cn1ncc2c([nH]c3ccccc32)c1=O)N1CCN(c2ccccn2)CC1 | 19.5
75 | COc1ccccc1-c1nnc2sc(-c3cnccn3)nn12 | -7.42
76 | O=C1C[C@H]2[C@H](CO)[C@@H](OC(=O)c3ccc(-c4ccccc4)cc3)C[C@H]2O1 | -4.68
77 | COc1ccc(N2CCN(C(=O)CSc3nc4ccccc4c(=O)[nH]3)CC2)cc1 | -10.7
78 | C=CCN(C)CC/C=C1\c2ccccc2CSc2ccccc21.Cl | -48.8
79 | Cc1ccc(NCc2nnc3n2CCCCC3)cc1 | 12.8
80 | FC(F)(F)c1cc(-c2ccccc2)nc(NC2CCCC2)n1 | 10.2
81 | CCCN(CC(=O)Nc1ccc(C(C)=O)cc1)CC(=O)Nc1ccccc1C | 5.73
82 | COc1cnn(-c2ccc([N+](=O)[O-])cc2)c(=O)c1Cl | -2.52
83 | CCOC(=O)N1CCC(N2C(=O)c3cc(C(=O)NC4CCCCC4)ccc3C2O)CC1 (centres unmarked) | -9.82
84 | O=C(N/N=C/c1ccco1)c1cccc(S(=O)(=O)Nc2ccccc2Cl)c1 | -11.9
85 | O=C(N/N=C/c1ccc(OC(F)F)cc1)c1cccc(S(=O)(=O)N2CCOCC2)c1 | 7.22
86 | COc1ccc(CCNC2CC(=O)N(CCc3ccccc3)C2=O)cc1OC (centres unmarked) | 0.286
